Experimental data published in patent US12533408B2, “Treatment regimen for the treatment of autoimmune disorders” (Merck Patent GmbH, priority 2020, dated 2026).
“And” between values parts separate entries of the source, which are not always exact repeats. Equal values may be shown once.

Key:
seasonal influenza = test system: seasonal influenza; design: species or system influenza A and B; settings: in vivo
[1] = test system: Influenza strain H3N2 (SingaporeA); settings: 3 patients
[2] = test system: Influenza strain H3N2 (Kansas A)
[3] = test system: Influenza strain H1N1 (MichiganA); settings: 3 patients
[4] = test system: Influenza strain H1N1 (BrisbaneA)

SMILES: Nc1nc(Cl)nc2c1ncn2[C@H]1C[C@H](O)[C@@H](CO)O1 [cladribine tablets, Cladribine]
- post-vaccination antibody titers against seasonal influenza (HAI), seroprotection limit (seasonal influenza): ≥ 40
- rise in titers against one Influenza strain (seasonal influenza): ≥ 4 fold
- 2-fold change [1]: 67%
- 4-fold change [1]: 0%
- Post-vacc seroprotection [1]: 100%
- Pre-vacc seroprotection [1]: 33%
- 2-fold change ([2]; H3N2 (Kansas A), 8 patients): 38%
- 4-fold change ([2]; H3N2 (Kansas A), 8 patients): 13%
- Post-vacc seroprotection ([2]; H3N2 (Kansas A), 8 patients): 100%
- Pre-vacc seroprotection ([2]; H3N2 (Kansas A), 8 patients): 100%
- H3N2 (Kansas A) antibody titer (HAI) ([2]; in vivo): 40 and 80
- 2-fold change [3]: 33%
- 4-fold change [3]: 0%
- Post-vacc seroprotection [3]: 100%
- Pre-vacc seroprotection [3]: 100%
- 2-fold change ([4]; H1N1 (BrisbaneA), 9 patients): 22%
- 4-fold change ([4]; H1N1 (BrisbaneA), 9 patients): 11%
- Post-vacc seroprotection ([4]; H1N1 (BrisbaneA), 9 patients): 100%
- Pre-vacc seroprotection ([4]; H1N1 (BrisbaneA), 9 patients): 100%
- H1N1 (BrisbaneA) antibody titer (HAI) ([4]; in vivo): 80
